Assay results published in paper PMC4336329 (PLoS ONE, 2015).
About 2,200 (0.71%) of roughly 310,000 compounds showed an effect of 50% or more. Effects have a minus sign here. Some of the results follow.

The molecules below were run against human ether-à-go-go-related gene (hERG) potassium channel (human, UniProt Q12809) (assay: primary screen, population patch clamp on CHO cells stably expressing hERG).
Chain of human ether-à-go-go-related gene (hERG) potassium channel (Q12809 whole entry, looked up): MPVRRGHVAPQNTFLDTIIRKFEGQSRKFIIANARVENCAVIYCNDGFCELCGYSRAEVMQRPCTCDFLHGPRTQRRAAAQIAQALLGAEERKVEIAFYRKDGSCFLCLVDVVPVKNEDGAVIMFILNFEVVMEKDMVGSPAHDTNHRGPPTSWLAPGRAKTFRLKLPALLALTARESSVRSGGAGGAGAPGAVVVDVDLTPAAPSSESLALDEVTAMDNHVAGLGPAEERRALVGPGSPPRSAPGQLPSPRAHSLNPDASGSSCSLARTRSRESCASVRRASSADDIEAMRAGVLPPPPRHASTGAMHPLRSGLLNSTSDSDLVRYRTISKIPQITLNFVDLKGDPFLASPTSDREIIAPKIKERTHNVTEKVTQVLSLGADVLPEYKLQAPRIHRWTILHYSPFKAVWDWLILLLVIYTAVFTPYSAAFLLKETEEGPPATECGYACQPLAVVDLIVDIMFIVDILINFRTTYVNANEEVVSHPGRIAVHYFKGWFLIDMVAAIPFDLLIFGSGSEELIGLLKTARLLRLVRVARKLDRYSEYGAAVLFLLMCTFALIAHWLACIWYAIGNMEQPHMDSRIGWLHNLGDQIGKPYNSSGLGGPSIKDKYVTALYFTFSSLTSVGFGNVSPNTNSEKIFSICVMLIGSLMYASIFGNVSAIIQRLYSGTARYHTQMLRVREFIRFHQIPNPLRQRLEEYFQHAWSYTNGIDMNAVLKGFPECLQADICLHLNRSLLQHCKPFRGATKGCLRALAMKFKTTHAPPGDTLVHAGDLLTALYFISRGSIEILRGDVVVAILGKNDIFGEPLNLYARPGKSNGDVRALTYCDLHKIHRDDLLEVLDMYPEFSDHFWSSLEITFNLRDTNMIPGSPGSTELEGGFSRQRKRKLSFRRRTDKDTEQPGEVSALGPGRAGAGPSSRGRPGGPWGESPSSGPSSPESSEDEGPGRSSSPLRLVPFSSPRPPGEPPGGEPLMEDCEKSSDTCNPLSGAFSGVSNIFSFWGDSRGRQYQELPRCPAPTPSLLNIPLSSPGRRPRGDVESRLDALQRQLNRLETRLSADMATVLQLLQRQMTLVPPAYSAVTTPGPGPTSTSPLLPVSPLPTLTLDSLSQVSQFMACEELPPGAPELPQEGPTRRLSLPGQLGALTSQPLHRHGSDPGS

| SMILES | hERG current change (%, negative = inhibition) at 1uM [%] |
| --- | --- |
| C=CCOc1ccc(C2C3=C(CCCC3=O)N(CC(=O)O)C3=C2C(=O)CCC3)cc1OCC | 6.04 |
| CCN1CCN(C(=O)c2cccc(OC3CCN(S(=O)(=O)N(C)C)CC3)c2)CC1 | 15.2 |
| Fc1ccccc1COc1ccc(/C=N/n2cnnc2)cc1 | 12.7 |
| CCCC1C(C#N)=C(N)Oc2n[nH]c(C(C)(C)C)c21 (stereo not shown) | 6.09 |
| COc1ccc(C2C(C#N)=C(N)Oc3n[nH]c(-c4ccccn4)c32)c(OC)c1OC (stereo not shown) | 16.3 |
| OC(C#Cc1ccccn1)c1cccs1 (stereo not shown) | 8.8 |
| COc1ccc(-c2cc(CNC(=O)CCl)on2)cc1 | 13 |
| COc1ccc(OC)c(NC(=O)Nc2ccccc2C)c1 | 13.7 |
| CC(=O)N/C(=C\c1ccccc1)C(=O)OCC(=O)NC(C)C12CC3CC(CC(C3)C1)C2 (stereo not shown) | 7.75 |
| Cc1ccc(Cl)cc1NC(=O)CCN1C(=O)C2C3CCC(C3)C2C1=O (stereo not shown) | 7.91 |
| N#CC[n+]1cc(-c2ccc(Cl)cc2)n2c1CCC2.[Cl-] | 12.2 |
| O=C(COc1ccc(Cl)cc1Cl)N/N=C/c1ccc[nH]1 | 3.54 |
| CCCCNS(=O)(=O)c1ccc2nc(SCC(=O)Nc3sccc3C#N)[nH]c2c1 | 7.37 |
| CCCOc1ccc(OCCSc2nnc(N)s2)cc1 | 13.8 |
| COc1ccc(/C=N/NC(=O)c2ccc(N(C)S(=O)(=O)c3ccccc3)cc2)cc1 | 10.6 |
| CN1C(C(=O)N2CCc3ccccc3C2)=CC(c2ccc(F)cc2)=NS1(=O)=O | 9.61 |
| Nn1c(SCC(=O)Nc2ccccc2F)nc2ccccc2c1=O | 1.58 |
| CCCc1cc(C(=O)Nc2sc(C)c(CC)c2C#N)no1 | 12.5 |
| CC(C)C(=O)NC(=S)Nc1ccccc1N1CCN(C(=O)c2ccc(Cl)cc2)CC1 | 0.0723 |
| O=c1nc(-c2ccccc2Cl)c2cc(F)ccc2[nH]1 | 15.1 |

| SMILES | hERG current change (%, negative = inhibition) at 1uM [%] |
| --- | --- |
| COc1ccccc1CN1CCCC(CN(CCN(C)C)C(=O)C2CCCC2)C1 (stereo not shown) | 9.78 |
| CCc1nc(NC(=O)Cc2csc(C)n2)sc1C(=O)OC | 9.28 |
| COC(=O)c1sccc1NC(=O)c1ccc(Cl)s1 | -3.73 |
| O=C(c1ccccc1)N1CCN(C(=S)NCCc2ccccc2)CC1 | -11.5 |
| O=C(NC1CCCCC1)C(c1ccc(F)cc1)N(C(=O)c1csnn1)C1CCCC1 (stereo not shown) | 2.6 |
| CCOC(=O)N1CCN(C(=O)c2ccc(N3CC4CC(C3)c3cccc(=O)n3C4)c(NC(=O)c3ccc(F)cc3)c2)CC1 (stereo not shown) | 8.17 |
| CS(=O)(=O)c1cnc2c(-c3ccc(F)cc3)cnn2c1N | -0.312 |
| Oc1c(Br)cc(Br)cc1CNc1ccccn1 | 13.1 |
| CC(C)N=C1NN=C(c2cccs2)CS1 | 28.3 |
| Cc1ccc(CCNC(=O)CC2Oc3ccc(C)cc3NC2=O)cc1 (stereo not shown) | 9.29 |
| O=c1c2ccc([N+](=O)[O-])cc2ncn1CCOc1ccc(Cl)cc1 | -4.78 |
| CCc1sc(C(=O)N2CCN(S(C)(=O)=O)CC2)cc1Br | 2.17 |
| Cc1nnc(NC(=O)c2ccc(S(=O)(=O)N3CCCCCC3)cc2)o1 | 3.18 |
| CC(C)C(=O)Nc1ccc(O)c(-c2csc(N)n2)c1 | 14.3 |
| CCCCOc1cccc(-c2nnc(N)s2)c1 | 5.55 |
| O=[N+]([O-])c1cccc(C2=NCCS2)c1 | 3.2 |
| COc1ccc(/C=C\C(=O)NCc2ccc3c(c2)cc(C)n3C)cc1OC | 10.2 |
| Cn1ccnc1SCC(=O)Nc1ccc2c(c1)OCCO2 | 5.28 |
| COC(=O)c1ccc(OCC(O)CN2C(=O)c3ccccc3C2=O)cc1 (stereo not shown) | 14.5 |
| O=C(Cn1cnc2ccccc2c1=O)OCC(=O)c1ccc2c(c1)OCCO2 | 12.8 |

| SMILES | hERG current change (%, negative = inhibition) at 1uM [%] |
| --- | --- |
| Cc1ccc(-n2ncc3c(SCc4cccc(C)c4)ncnc32)cc1 | 5.37 |
| COc1ccccc1CNC(=O)c1cc(-c2ccccc2)n(Cc2cc(C)no2)n1 | 5.65 |
| Cc1cccc[n+]1C1C(c2ccc([N+](=O)[O-])cc2)C(C#N)=C(C(=C=[N-])C#N)NC1(O)C1CC1 (stereo not shown) | 4.67 |
| Br.CCCCn1c(=N)n(CC(=O)c2ccc([N+](=O)[O-])cc2)c2ccccc21 | -33.1 |
| Cc1nc2sccc2c(=O)n1N | 15.6 |
| COc1cc(OC)cc(C(=O)N2CCN(S(C)(=O)=O)CC2)c1 | 7.32 |
| CCn1c(SCC(=O)OC(C)C)nnc1-c1ccccc1 | 8.68 |
| O=C(O)CCC(=O)N1CCc2cc(S(=O)(=O)NCc3cccs3)ccc21 | 12.7 |
| CCN(CC)C(=O)c1csc(Nc2cccc3ccccc23)n1 | 13.2 |
| CCN(CC)CCCNC(=S)N(CCO)Cc1cc2cc3c(cc2[nH]c1=O)OCCO3 | 9.62 |
| CC(C)N1C(=O)S/C(=C/c2ccc(Sc3nc4ccccc4[nH]3)o2)C1=O | 4.84 |
| O=C(CSc1nncs1)Nc1nccs1 | 15.8 |
| CC(=O)c1ccc(OCC(=O)OC(C)C(=O)NC2CCCCC2)cc1 (stereo not shown) | -3.11 |
| O=[N+]([O-])c1ccccc1S(=O)(=O)Oc1ccc(/C=N/n2cnnc2)cc1 | -3.71 |
| O=C(Nc1ccc(C(=O)O)cc1)/C(=C\c1ccccc1)NC(=O)c1ccccc1 | -2.26 |
| COc1ccc(CN(N=O)C2CC(=O)N(c3ccc(OC)cc3)C2=O)cc1 (stereo not shown) | 15.2 |
| Cc1cc(Cl)ccc1C(=O)C1CCCN(C(=O)CCn2cncn2)C1 (stereo not shown) | -11.6 |
| Cc1ccn2cc(C(=O)NCc3ccco3)nc2c1 | 10.3 |
